Assay results as given in PubChem BioAssay AID1468 (National Center for Advancing Translational Sciences (NCATS), 2008).
Several values for one entry are separate records, joined by “and”; a condition that tells them apart may be missing. Equal entries are not always repeated. Among all 280,000 compounds or so, about 1,100 (0.39%) were called active. This list was built around the results that the source calls inconclusive (neither active nor inactive); the mix of calls is not that of the screen. Calls follow the shape of the dose curve; as a rule, active = well fitted inhibition curve with a large enough effect; inconclusive = small, poorly fitted or top-dose-only effect, or effect the other way; inactive = flat fitted curve, though single readings scatter. No potency is given beside an inconclusive call; the fits are too rough.

Target: Microtubule-associated protein tau (Homo sapiens) (UniProt P10636)
Experiment: qHTS for Inhibitors of Tau Fibril Formation, Fluorescence Polarization; also: nearly all actives have a fitted effect of over 55% in size
Settings: K18 P301L tau heparin fibrillization, Alexa594 FP, 6 h; series mostly up to 57.7 µM
Method in brief: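 K18 P301L tau (15 uM unlabeled/0.24 uM Alexa 594-labeled, final) + compound + heparin 20 uM final; 100 mM NaOAc pH 7; 6 hr 37 C; ThT 30 uM final added, 1 hr RT; FP ex 555/em 632 nm.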
Potency is read from the fitted curve at half-maximal effect; tags tell the direction and shape of the fitted curve.

Sequence of UniProt P10636 (P10636 whole entry, looked up): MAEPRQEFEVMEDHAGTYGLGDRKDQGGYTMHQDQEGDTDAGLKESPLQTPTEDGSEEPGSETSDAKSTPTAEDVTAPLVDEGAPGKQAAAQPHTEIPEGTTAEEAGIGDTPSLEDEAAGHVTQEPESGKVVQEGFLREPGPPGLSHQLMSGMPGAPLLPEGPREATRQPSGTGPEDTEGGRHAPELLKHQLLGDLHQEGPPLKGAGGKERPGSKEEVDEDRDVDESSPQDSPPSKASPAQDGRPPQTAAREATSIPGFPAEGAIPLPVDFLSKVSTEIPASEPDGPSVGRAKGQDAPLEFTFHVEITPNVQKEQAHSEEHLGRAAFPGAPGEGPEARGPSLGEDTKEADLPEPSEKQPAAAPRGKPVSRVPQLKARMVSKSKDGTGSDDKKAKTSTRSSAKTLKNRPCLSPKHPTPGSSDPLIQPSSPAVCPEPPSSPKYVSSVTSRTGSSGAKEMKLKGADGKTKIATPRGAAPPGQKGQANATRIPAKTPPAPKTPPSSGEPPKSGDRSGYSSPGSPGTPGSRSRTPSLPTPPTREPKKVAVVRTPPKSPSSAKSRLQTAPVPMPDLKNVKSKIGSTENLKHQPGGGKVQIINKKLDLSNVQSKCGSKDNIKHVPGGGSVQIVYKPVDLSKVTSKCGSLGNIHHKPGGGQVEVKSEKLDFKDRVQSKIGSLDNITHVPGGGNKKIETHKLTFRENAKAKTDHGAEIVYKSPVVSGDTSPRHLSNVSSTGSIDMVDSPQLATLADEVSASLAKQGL

Compound | Potency
COC(=O)c1cccc(C23CC4(C2)[C@H](CN(Cc2cccnc2)[C@@H]4c2ccccc2)C3c2ccccc2)c1 (some centres not stated) | inactive
CCOc1ccc(OCCSc2nc3ccccc3[nH]2)cc1 | inconclusive [inhibitor, single point]
COc1ccc2c(c1)-c1c(sn(-c3ccc(OC)c(OC)c3)c1=S)C(C)(C)N2 | inactive
Cc1ccc(NC(=O)c2cc(N3C(=O)C=CC3=O)ccc2N2CCOCC2)cc1Cl | inconclusive [inhibitor, single point]
Cc1ccc(C(=O)Nc2cccc([N+](=O)[O-])c2)cc1S(=O)(=O)Nc1ccc(NC(=O)c2ccccc2)cc1 | inconclusive [inhibitor, partial curve]
Cn1c(=O)c2c(ncn2CC(=O)Nc2nc(-c3ccc(F)c(F)c3)cs2)n(C)c1=O | inconclusive [inhibitor, single point]
Cc1ccccc1NC(=O)CSc1nc2ccc(NC(=O)CCc3ccccc3)cc2s1 | inconclusive [inhibitor, single point]
O=C(O)CSc1nnnn1C1CCCCC1 | inactive
COc1ccc2oc(=O)c(C(=O)NCCc3c(C)[nH]c4ccc(C)cc34)cc2c1 | inconclusive [activator, single point]
CN(c1ccccc1)S(=O)(=O)c1cccc(C(=O)NCCc2ccc(O)c(O)c2)c1 | inactive
CN1CCc2cccc3c2[C@H]1Cc1ccc(O)c(O)c1-3 | active: 25.1 µM and active: 20 µM
Cc1ccccc1NC(=O)C(Cc1ccccc1)N1Cc2ccccc2C1=O (configuration not stated) | inconclusive [inhibitor, full curve]
C=CCNC(=O)c1ccccc1NC(=O)c1ccccc1 | inconclusive [inhibitor, single point]
COc1ccc(CNC(=O)c2cc3sccc3n2Cc2ccc(F)cc2)cc1 | inconclusive [inhibitor, single point]
CC(C)C[C@H](NC(=O)c1nc[nH]c1C(=O)N1CCN(c2ccccc2)CC1)C(=O)OC(C)(C)C | inactive
CSc1nc(N)nc(SCC(=O)C23CC4CC(CC(C4)C2)C3)c1C#N | inconclusive [inhibitor, partial curve]
Cn1cc(S(=O)(=O)N2CCCCCC2)cc1C(=O)N1CCN(c2ccccc2F)CC1 | inactive
COc1ccc(Sc2ccc(/C=C3\C(=O)NN(c4ccccc4)C3=O)o2)cc1 | inconclusive [inhibitor, single point]
COc1cc(NS(=O)(=O)c2ccc3c(c2)CC(C)N3C(=O)C2CCC2)cc(OC)c1OC (configuration not stated) | inactive
CCc1ccc(NC(=O)Cn2c(=O)n(CCCC(=O)NCc3ccccc3Cl)c(=O)c3ccccc32)cc1 | inconclusive [inhibitor, partial curve]
N#CC1=C(N)C(C#N)(C#N)C2(C(=O)Nc3ccccc32)C2CCCC=C12 (configuration not stated) | inconclusive [inhibitor, single point]

Compound | Potency
CCOC(=O)N1CCN(CCC(=O)c2ccc(Cl)cc2)CC1 | inconclusive [activator, full curve]
COc1cccc(NC(=O)Cn2c(=O)n(-c3ccccc3)c(=O)c3ccc(C(=O)NCc4ccc5c(c4)OCO5)cc32)c1 | active: 31.6 µM
O=C(NCC1CCCO1)c1ccc2c(=O)n(Cc3cccc(Br)c3)c(=S)[nH]c2c1 (configuration not stated) | inconclusive [inhibitor, partial curve]
O=C(OCC(=O)c1ccc(Cl)s1)c1ccccn1 | inactive
COc1ccccc1NC(=O)c1oc2ccccc2c1NC(=O)Cc1cccs1 | inconclusive [inhibitor, full curve]
CC(=O)c1ccc(NC(=O)C2(S(=O)(=O)c3ccccc3)CC2)cc1 | inconclusive [inhibitor, partial curve]
Cc1ccc(S(=O)(=O)N(C(=O)c2ccncc2)c2ccc(OC(=O)c3ccncc3)c3ccccc23)cc1 | inconclusive [inhibitor, partial curve]
CCC(=O)N1CCN(c2ccc(NC(=O)c3ccc([N+](=O)[O-])o3)cc2)CC1 | inactive
CCN(CC)CCCNC(=O)CCc1c(C)nc2c(c1C)c(=O)n(C)c(=O)n2C | inactive
O=C(COc1ccc(Cl)cc1)NCc1nnc(SCC(=O)NCC2CCCO2)o1 (configuration not stated) | inconclusive [activator, partial curve, poor fit]
Cc1ccc(NC(=O)c2cccc(NC(=O)N3CCSc4ncccc43)c2)cc1F | inconclusive [inhibitor, partial curve]
O=C(COC(=O)c1ccccc1Nc1ccccc1)NCc1ccccc1Cl | inconclusive [inhibitor, single point]
Cc1cc(=O)c2cc(C(=O)Nc3cccc(C)c3C)ccc2[nH]1 | inconclusive [inhibitor, partial curve]
O=C(Cn1ccc2cc(S(=O)(=O)N3CCCCCC3)ccc21)NCc1cccc(Cl)c1 | inactive
O=C(CN(Cc1ccc(Cl)c(Cl)c1)S(=O)(=O)c1ccccc1)N/N=C\c1ccc2c(c1)OCO2 | inconclusive [inhibitor, partial curve]
COc1ccc(NC(=O)Nc2nnc(N3CCC(C)CC3)s2)cc1OC | inconclusive [activator, partial curve]
CCOC(=O)/C(=C/C=C1\Sc2ccccc2N1CC)C(C)=O | inconclusive [activator, partial curve]
COc1ccc(NC(=O)Nc2cc(F)ccc2C)cc1 | inconclusive [activator, partial curve]
COc1cccc(C(=O)CSc2nnc(-c3cc(OC)c(OC)c(OC)c3)o2)c1 | inconclusive [activator, single point]
CCn1c(N)c(C(=O)NCC2CCCO2)sc1=S (configuration not stated) | inconclusive [inhibitor, single point]
CN(C)CCCN(C(=O)CCc1ccccc1)c1nc2ccc(Br)cc2s1 | inconclusive [inhibitor, partial curve]
